In PMC8249609:
No constants are given. Whether binding was seen depends on the method and setting. For some assays here: Binding seen in cells or lysates may run through a third protein. Some entries that bind do so weakly or less than the wild type. For some assays here: Tags and fused reporters may be left off the sequences shown. Each block holds one substance with its values, some of them ahead of it.

Chains of the proteins cited; added tags and fusions are not shown. Lines headed by an entry give the natural chain unless they say otherwise; changes in a name come on top. Residues count along the entry.
UniProt Q9R0G6: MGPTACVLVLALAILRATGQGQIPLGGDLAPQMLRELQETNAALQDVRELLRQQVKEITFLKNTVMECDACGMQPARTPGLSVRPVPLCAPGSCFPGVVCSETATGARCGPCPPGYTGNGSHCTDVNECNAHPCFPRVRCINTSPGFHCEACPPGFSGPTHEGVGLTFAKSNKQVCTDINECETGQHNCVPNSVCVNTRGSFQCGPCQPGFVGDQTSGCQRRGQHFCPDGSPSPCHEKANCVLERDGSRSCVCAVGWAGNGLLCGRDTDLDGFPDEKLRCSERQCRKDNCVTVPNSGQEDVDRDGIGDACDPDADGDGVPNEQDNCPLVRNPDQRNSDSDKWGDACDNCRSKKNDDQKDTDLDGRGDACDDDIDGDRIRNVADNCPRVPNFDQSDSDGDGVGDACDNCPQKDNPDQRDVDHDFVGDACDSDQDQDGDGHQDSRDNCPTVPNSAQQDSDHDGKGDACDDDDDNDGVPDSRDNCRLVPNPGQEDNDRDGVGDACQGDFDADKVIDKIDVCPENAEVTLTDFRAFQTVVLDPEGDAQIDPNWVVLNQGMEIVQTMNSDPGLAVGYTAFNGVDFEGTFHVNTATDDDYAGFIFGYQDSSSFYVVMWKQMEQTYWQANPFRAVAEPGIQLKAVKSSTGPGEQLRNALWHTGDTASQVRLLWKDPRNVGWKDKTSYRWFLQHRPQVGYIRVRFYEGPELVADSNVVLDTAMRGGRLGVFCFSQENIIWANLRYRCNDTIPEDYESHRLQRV
MBP-fusion protein of the COMP C-terminus: residues 521-755 of Q9R0G6
UniProt P29754: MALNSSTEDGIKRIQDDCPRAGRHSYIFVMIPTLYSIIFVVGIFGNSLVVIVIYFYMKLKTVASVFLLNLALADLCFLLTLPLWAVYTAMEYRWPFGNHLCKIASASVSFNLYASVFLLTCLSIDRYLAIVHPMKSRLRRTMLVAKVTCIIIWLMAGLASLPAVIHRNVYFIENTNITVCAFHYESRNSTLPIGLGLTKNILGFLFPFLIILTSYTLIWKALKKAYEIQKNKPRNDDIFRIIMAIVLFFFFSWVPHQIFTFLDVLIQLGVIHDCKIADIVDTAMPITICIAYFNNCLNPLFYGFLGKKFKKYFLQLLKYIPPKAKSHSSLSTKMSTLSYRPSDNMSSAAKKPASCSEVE
N-terminus of mouse AT1a receptor (aa 1-27) in pBIND: residues 1-27 of P29754
transmembrane region 1-3 of mouse AT1a receptor (aa 28-142) in pBIND: residues 28-142 of P29754
transmembrane region 4-7 of mouse AT1a receptor (aa 143-299) in pBIND: residues 143-299 of P29754
C-terminus of mouse AT1a receptor (aa 300-359) in pBIND: residues 300-359 of P29754
UniProt P29755: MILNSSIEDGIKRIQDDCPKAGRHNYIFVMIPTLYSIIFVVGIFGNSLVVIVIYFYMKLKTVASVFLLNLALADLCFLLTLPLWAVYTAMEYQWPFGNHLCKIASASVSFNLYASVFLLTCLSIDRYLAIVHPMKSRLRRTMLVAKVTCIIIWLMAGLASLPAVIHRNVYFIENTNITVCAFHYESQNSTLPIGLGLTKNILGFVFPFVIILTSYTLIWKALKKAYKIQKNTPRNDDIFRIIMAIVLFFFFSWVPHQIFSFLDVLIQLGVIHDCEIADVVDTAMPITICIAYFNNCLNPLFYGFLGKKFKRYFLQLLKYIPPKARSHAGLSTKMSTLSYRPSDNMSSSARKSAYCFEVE
UniProt P30556, residues 1-318: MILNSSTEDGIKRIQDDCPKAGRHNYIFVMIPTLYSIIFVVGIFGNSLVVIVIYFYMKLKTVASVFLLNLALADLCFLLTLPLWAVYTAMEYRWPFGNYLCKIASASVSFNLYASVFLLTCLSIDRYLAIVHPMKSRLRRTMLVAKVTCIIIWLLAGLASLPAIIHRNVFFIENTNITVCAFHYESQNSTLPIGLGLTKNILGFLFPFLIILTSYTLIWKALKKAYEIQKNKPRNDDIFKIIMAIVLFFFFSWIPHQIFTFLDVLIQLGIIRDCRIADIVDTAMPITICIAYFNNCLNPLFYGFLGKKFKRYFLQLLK
UniProt P07996, residues 19-1170: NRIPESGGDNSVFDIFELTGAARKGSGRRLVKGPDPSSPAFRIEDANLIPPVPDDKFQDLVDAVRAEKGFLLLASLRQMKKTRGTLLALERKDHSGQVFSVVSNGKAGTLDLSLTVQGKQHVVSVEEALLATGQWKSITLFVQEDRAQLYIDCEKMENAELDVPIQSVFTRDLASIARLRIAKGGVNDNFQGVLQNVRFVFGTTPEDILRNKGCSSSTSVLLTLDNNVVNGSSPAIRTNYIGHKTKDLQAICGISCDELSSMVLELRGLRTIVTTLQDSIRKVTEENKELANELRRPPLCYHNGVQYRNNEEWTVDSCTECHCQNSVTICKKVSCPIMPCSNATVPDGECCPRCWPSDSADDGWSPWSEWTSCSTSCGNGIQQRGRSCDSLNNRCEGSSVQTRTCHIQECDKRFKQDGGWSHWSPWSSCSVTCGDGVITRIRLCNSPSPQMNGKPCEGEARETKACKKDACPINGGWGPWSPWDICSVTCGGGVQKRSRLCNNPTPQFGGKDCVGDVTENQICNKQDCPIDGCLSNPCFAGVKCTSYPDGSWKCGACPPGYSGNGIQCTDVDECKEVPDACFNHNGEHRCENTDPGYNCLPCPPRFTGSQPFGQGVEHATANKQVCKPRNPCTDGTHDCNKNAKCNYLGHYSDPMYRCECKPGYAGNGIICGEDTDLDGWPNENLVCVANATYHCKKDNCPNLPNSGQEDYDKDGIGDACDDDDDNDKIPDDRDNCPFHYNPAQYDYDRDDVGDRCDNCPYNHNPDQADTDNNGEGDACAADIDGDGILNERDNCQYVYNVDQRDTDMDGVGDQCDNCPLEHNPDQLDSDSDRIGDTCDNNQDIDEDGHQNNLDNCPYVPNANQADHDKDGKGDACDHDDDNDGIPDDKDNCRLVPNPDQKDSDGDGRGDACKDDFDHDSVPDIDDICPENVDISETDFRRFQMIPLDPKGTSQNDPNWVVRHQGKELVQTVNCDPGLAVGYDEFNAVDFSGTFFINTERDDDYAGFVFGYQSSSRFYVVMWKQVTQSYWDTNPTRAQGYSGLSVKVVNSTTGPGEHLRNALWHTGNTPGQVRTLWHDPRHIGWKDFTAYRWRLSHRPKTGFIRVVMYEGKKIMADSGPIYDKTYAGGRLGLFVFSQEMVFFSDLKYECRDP

Tests used:
[1] = biological target: cartilage oligomeric matrix protein, endogenous in mouse aorta (mouse (endogenous in suprarenal aorta)) (UniProt Q9R0G6); experiment: co-IP; suprarenal aorta lysates of C57BL/6 J mice; anti-AT1 or anti-COMP antibody or control IgG, Protein A/G agarose beads; western blot
[2] = biological target: N-terminus of mouse AT1a receptor (aa 1-27) in pBIND (mouse) (UniProt P29754); experiment: two-hybrid; mammalian two-hybrid in COS-7 cells: AT1a domains in pBIND, COMP or its domains in pACT, reporter pG5luc; dual-luciferase assay after 48 h
[3] = biological target: C-terminus of mouse AT1a receptor (aa 300-359) in pBIND (mouse) (UniProt P29754); experiment: as above
[4] = biological target: transmembrane region 1-3 of mouse AT1a receptor (aa 28-142) in pBIND (mouse) (UniProt P29754); experiment: as above
[5] = biological target: transmembrane region 4-7 of mouse AT1a receptor (aa 143-299) in pBIND (mouse) (UniProt P29754); experiment: as above
[6] = biological target: MBP-fusion protein of the COMP C-terminus (mouse) (UniProt Q9R0G6); experiment: pull-down; MBP fusion proteins of COMP domains and GST-fused AT1a N-terminus, equimolar, 4 °C 2 h; amylose resin; western blot with anti-GST; both purified
[7] = biological target: MBP-fusion protein of the COMP N-terminus (mouse) (UniProt Q9R0G6); experiment: as above
[8] = biological target: MBP-fusion protein of the COMP Type III repeat (mouse) (UniProt Q9R0G6); experiment: as above
[9] = biological target: AT1b receptor, endogenous in AT1a-/- mouse aorta (mouse (endogenous in AT1a-/- aorta)) (UniProt P29755); experiment: co-IP; AT1a-/- aortic samples; anti-AT1 or anti-COMP antibody, reciprocal; western blot
[10] = biological target: AT1 receptor (AT1a), endogenous in mouse aorta (mouse (endogenous in suprarenal aorta)) (UniProt P29754); experiment: co-IP; suprarenal aorta lysates of C57BL/6 J mice; anti-AT1 or anti-COMP antibody or control IgG, Protein A/G agarose beads; western blot
[11] = biological target: AT1 receptor (AT1a), endogenous in mouse aorta (mouse (endogenous in suprarenal aorta)) (UniProt P29754); experiment: proximity ligation; frozen cross-sections of mouse suprarenal aortas; anti-COMP (rat) and anti-AT1 (rabbit) antibodies, Duolink In Situ Red Kit; IgGs as controls
[12] = biological target: T1, AT2 receptor with a TC-tag inserted into extracellular loop 1 (UniProt P50052); experiment: FRET or BRET; intermolecular FlAsH-BRET, saturation: HEK293T cells co-transfected with a fixed amount of COMP-RLuc plasmid and increasing amounts of TC-tagged receptor plasmid; FlAsH labelling; coelenterazine-h
T1 sequence (chain, FlAsH label on the TC-tag): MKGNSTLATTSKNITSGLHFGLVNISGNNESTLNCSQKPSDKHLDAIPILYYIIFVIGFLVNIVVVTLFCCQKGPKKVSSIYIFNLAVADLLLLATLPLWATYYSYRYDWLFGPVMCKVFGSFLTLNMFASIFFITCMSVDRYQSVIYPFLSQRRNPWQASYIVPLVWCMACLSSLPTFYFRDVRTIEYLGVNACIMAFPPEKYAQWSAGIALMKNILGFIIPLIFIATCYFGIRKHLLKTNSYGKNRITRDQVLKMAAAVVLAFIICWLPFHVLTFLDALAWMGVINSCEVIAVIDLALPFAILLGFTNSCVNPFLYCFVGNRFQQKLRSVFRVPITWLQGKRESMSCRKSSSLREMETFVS

[13] = biological target: human AT1 receptor with a TC-tag inserted at G97-N98 in extracellular loop 1 (human) (UniProt P30556); experiment: as above
[14] = biological target: Flag-tagged mouse AT1a receptor (mouse) (UniProt P29754); experiment: co-IP; Flag-AT1a-overexpressing COS-7 cells incubated with purified COMP protein for 30 min; lysates precipitated with anti-Flag antibody or control IgG; COMP by western blot; only the binder purified
[15] = biological target: AT1 receptor, residues 1-318, with N-terminal Flag-tag and BRIL (Flag-BRIL-AT1) (human (by the printed RefSeq NM_000685.4)) (UniProt P30556); experiment: SPR; BiaCore 8 K; AT1 amine-coupled to a CM5 chip (~4500 RU); analyte in two-fold dilutions (COMP 0.43–110 nM), 120 s association, 200 s dissociation; 10 mM HEPES pH 7.4, 150 mM NaCl, 0.05% P20, 0.01% DDM, 0.002% CHS; 1:1 binding model; both purified

Substance: C-terminus of mouse COMP (aa 521-755) in pACT (from UniProt Q9R0G6 521-755) (domain or fragment)
- binding [2]: no binding

Substance: COMP fused into the pACT vector (from UniProt Q9R0G6 1-755)
- binding [3]: no binding
- binding [2]: binds
- binding [4]: no binding
- binding [5]: no binding

Substance: EGF1-2 of mouse COMP (aa 85-177) in pACT (from UniProt Q9R0G6 85-177) (domain or fragment)
- binding [2]: binds

Substance: EGF1-3 of mouse COMP (aa 85-220) in pACT (from UniProt Q9R0G6 85-220) (domain or fragment)
- binding [2]: binds

Substance: EGF repeat domain of mouse COMP (aa 84-261) in pACT (from UniProt Q9R0G6 84-261) (domain or fragment)
- binding [2]: binds

Substance: GST-fused N-terminus of mouse AT1a receptor (aa 1-27) (from UniProt P29754 1-27) (domain or fragment)
- binding [6]: no binding
- binding [7]: no binding
- binding [8]: no binding

Substance: cartilage oligomeric matrix protein, endogenous in mouse aorta (from UniProt Q9R0G6 20-755)
- binding [9]: no binding
- binding [10]: binds
- binding [11]: binds

Substance: purified COMP protein (as in ref. 75) (from UniProt Q9R0G6 20-755)
- binding [14]: binds

Continued, values first:

- binding [1]: binds
Substance: AT1 receptor (AT1a), endogenous in mouse aorta (from UniProt P29754 1-359)

- binding [2]: no binding
Substance: EGF1 of mouse COMP (aa 85-124) in pACT (from UniProt Q9R0G6 85-124) (domain or fragment)

- binding [2]: binds
Substance: EGF2 of mouse COMP (aa 125-177) in pACT (from UniProt Q9R0G6 125-177) (domain or fragment)

- binding [2]: no binding
Substance: N-terminus of mouse COMP (aa 20-83) in pACT (from UniProt Q9R0G6 20-83) (domain or fragment)

- binding [12]: no binding
- binding [13]: binds
Substance: mouse COMP fused with the modified Renilla luciferase at the C-terminus (from UniProt Q9R0G6 20-755)

- binding [15]: no binding
Substance: thrombospondin-1 (from UniProt P07996 19-1170)

- binding [2]: no binding
Substance: type III repeat domain of mouse COMP (aa 266-520) in pACT (from UniProt Q9R0G6 266-520) (domain or fragment)
